Results: publication PMC4336329 (PLoS ONE, 2015)
The campaign covered roughly 310,000 compounds. About 2,200 (0.71%) showed an effect of 50% or more. Effects have a minus sign here. Some of the results follow.

Target: human ether-à-go-go-related gene (hERG) potassium channel (human, UniProt Q12809)
Assay: primary screen, population patch clamp on CHO cells stably expressing hERG

Chain of human ether-à-go-go-related gene (hERG) potassium channel (Q12809 whole entry, looked up): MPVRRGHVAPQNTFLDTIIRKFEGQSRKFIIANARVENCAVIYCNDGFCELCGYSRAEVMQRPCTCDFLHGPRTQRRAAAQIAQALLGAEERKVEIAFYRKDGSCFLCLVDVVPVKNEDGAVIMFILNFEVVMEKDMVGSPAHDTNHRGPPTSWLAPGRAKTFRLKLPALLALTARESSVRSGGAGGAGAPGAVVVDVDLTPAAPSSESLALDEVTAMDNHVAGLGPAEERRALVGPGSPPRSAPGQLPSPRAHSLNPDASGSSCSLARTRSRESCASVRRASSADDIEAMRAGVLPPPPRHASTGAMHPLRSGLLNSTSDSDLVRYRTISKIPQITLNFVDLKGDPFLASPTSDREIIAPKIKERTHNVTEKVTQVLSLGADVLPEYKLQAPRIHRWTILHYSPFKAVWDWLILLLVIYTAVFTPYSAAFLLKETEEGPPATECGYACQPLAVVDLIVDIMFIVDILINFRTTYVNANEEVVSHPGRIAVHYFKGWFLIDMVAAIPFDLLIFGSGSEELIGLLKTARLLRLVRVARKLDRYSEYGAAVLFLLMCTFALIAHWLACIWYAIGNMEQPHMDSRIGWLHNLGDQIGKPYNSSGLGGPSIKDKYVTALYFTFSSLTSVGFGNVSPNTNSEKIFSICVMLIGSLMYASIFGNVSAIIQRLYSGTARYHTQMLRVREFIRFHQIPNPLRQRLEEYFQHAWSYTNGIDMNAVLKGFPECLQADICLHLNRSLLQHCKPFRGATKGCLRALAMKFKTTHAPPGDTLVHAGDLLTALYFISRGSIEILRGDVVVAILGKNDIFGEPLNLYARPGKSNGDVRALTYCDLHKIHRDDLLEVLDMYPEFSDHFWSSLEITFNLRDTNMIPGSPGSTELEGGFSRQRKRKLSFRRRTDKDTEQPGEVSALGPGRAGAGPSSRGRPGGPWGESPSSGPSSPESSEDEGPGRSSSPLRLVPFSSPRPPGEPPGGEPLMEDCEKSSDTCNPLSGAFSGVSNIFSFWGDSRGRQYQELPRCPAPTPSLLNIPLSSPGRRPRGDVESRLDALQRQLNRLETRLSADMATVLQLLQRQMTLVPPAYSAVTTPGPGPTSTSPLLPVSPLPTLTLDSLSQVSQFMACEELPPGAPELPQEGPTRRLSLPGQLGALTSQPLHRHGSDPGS

Row | Structure (SMILES) | hERG current change (%, negative = inhibition) at 1uM [%]
1 | CCC(=O)c1ccc(N2CCOCC2)c(F)c1 | 4.91
2 | CC(C)NC(=O)CSCc1c(F)cccc1Cl | 15.1
3 | O=C(NCc1ccc(Cl)cc1)C1CCN(S(=O)(=O)c2cc([N+](=O)[O-])ccc2Cl)CC1 | -27
4 | Cn1c(SCC(N)=O)nnc1-c1ccc(C(C)(C)C)cc1 | 16.5
5 | Cc1cc(SCc2cc(=O)n3ccsc3n2)nc2ccccc12 | -0.661
6 | Cc1ccc(Cn2c(SC3CCOC3=O)nc3ccccc3c2=O)cc1 (stereo not drawn) | -6.65
7 | O=C(CN1CCN(c2ccc(F)cc2)CC1)Nc1ccccc1[N+](=O)[O-] | 2.79
8 | CCOCCCNC(=O)c1cc(-c2cccnc2)nc2ccc(S(=O)(=O)N3CCC(C)CC3)cc12 | 20.5
9 | O=C(Nc1ccc(O)cc1)/C(=C\c1ccncc1)NC(=O)c1ccccc1 | 12.9
10 | CCN(CC)S(=O)(=O)c1cccc(NC(=O)C(=O)c2c(-c3ccccc3)cc3ccccn23)c1 | 10.5
11 | COc1ccc(N2CCN(C(=O)c3nc4nc(C)cc(C)n4n3)CC2)cc1 | 7.39
12 | C=CCNS(=O)(=O)c1cccc2cc(C(=O)O)c(O)cc12 | 13.9
13 | Cc1ccccc1C(=O)OC1OC(=O)C(Cl)=C1Nc1ccc(C(=O)O)cc1 (stereo not drawn) | 15.2
14 | O=C(O)Cc1ccc(NC(=S)Nc2cccc(Cl)c2Cl)cc1 | 14.2
15 | Cc1c(Cl)cccc1NC(=S)N1CCCN(Cc2ccc(F)cc2)C1 | 7.8
16 | O=C(NC1CCS(=O)(=O)C1)N1CCCCC1 (stereo not drawn) | 10.6
17 | Cc1ccccc1C(=O)N/C(=C/c1ccc(-c2cccnc2Cl)o1)C(=O)NCCCN1CCN(C)CC1 | 12.3
18 | CC(O)c1cc2c(cc1NC(=O)c1cnn3c1NC(c1ccco1)CC3C(F)(F)F)OCO2 (stereo not drawn) | 13.7
19 | CC(C)CCN1C(=O)c2ccc(C(=O)Nc3cc(C(=O)O)cc(C(=O)O)c3)cc2C1=O | -1.38
20 | CCCCC(=O)Nc1cccc(-c2csc(-c3ccccc3)n2)c1 | 5.43
21 | COc1ccc(C)cc1N(C(=O)c1ccc(C#N)cc1)C1=NC(C)(C)CS1 | 10.5
22 | CC(C)Cn1c(SCC(=O)Nc2cccc(S(N)(=O)=O)c2)nc2ccccc2c1=O | 12.8
23 | CCOC(=O)c1sc(Nc2ccc(OCC)cc2)nc1C | 9.2

Row | Structure (SMILES) | hERG current change (%, negative = inhibition) at 1uM [%]
24 | COc1ccc(NS(=O)(=O)c2cccc(C(=O)N3CCCCCCC3)c2)cc1 | 8.97
25 | Cc1nc(-c2cccs2)sc1C(=O)O | 11.5
26 | CCN(C(=O)c1ccc(S(=O)(=O)N2CCCCC2)cc1)C1CCS(=O)(=O)C1 (stereo not drawn) | -6.73
27 | O=C(O)c1sccc1S(=O)(=O)c1ccccc1 | 2.01
28 | COc1ccccc1C(=O)O/N=C1/CCCc2c1ccc(OC)c2[N+](=O)[O-] | 6.85
29 | COc1cc(NC(=O)c2ccccc2[N+](=O)[O-])c(C(=O)O)cc1OC | -3.03
30 | O=S(=O)(c1ccccc1)N1CCC(=NO)CC1 | 16.1
31 | CS(=O)(=O)N(CCc1ccccc1)CC(=O)NCc1ccccc1 | 17.2
32 | CC(=O)OCC(=O)Nc1ccccc1OC(F)F | 16.9
33 | COc1cc(OC)cc(C(=O)OCC(=O)NCc2ccco2)c1 | 5.78
34 | CCc1ccc(-c2nc(SCC(=O)N(CC)C3CCS(=O)(=O)C3)n[nH]2)cc1 (stereo not drawn) | 3.17
35 | COc1cccc(CC(=O)Nc2cc(C(F)(F)F)ccc2N2CCCC2)c1 | 6
36 | Cc1cccc(S(=O)(=O)Nc2nc3ccccc3nc2OC(C)C)c1 | 19.6
37 | CN1CCN(S(=O)(=O)c2ccc(Oc3ccc(F)c(Cl)c3)nc2)CC1 | 8.49
38 | CCn1cc(C(=O)c2cccs2)c2ccccc21 | 19
39 | COc1ccc(NC(=S)Nc2ccc3nccnc3c2)cc1 | 15.3
40 | Cc1ccc(-c2nnc(SCC(=O)NC(=O)Nc3ccc(C)cc3C)n2N)cc1 | 7.21
41 | COc1ccc2c(=O)c(-c3ccccc3C)c(C)oc2c1 | -0.575
42 | O=C(COC(=O)c1ccc(O)cc1O)Nc1ccc(Cl)cn1 | 5.42
43 | Cc1cccc(-n2ncc3c(NCc4cccnc4)ncnc32)c1 | -7.8
44 | CC(NC(=O)CSCc1ccc(Br)cc1)c1ccccc1 (stereo not drawn) | 9.08
45 | O=C(O)CSCC(=O)NCc1cccc(C(F)(F)F)c1 | 8.33
46 | COc1cccc(C(c2sc3nc(C)nn3c2O)N2CCC3(CC2)OCCO3)c1 (stereo not drawn) | 6.66

Row | Structure (SMILES) | hERG current change (%, negative = inhibition) at 1uM [%]
47 | CC1(C)C(c2ccccc2)=[N+]([O-])CN1O | -3.59
48 | CCN(CC)CCCNC(=O)Cc1c(C(=O)O)n(C)c2ccccc12 | 11.1
49 | COc1ccc(S(=O)(=O)Nc2c(C)nc3nc(C)[nH]n3c2=O)cc1 | 13.5
50 | CC(NC(=O)COC(=O)C1CCN(S(=O)(=O)c2ccccc2C(F)(F)F)CC1)c1ccccc1 (stereo not drawn) | 4.12
51 | O=C(NN=C1C2CC3CC(C2)CC1C3)c1ccccc1O | 3.73
52 | O=C(NN1CCOCC1)c1cccc(COc2cccc(Br)c2)c1 | 6.41
53 | O=C(CSc1n[nH]c(=O)[nH]c1=O)N1CCCCCC1 | 4.37
54 | CS(=O)(=O)Nc1ccccc1C(=O)Nc1cc(Cl)cc(Cl)c1 | -4.85
55 | Cc1ccc(NC(=O)CN(C)CC(=O)Nc2ccccc2C(=O)Nc2ccccc2)cc1 | 8.74
56 | Cl.c1ccc(CN2CCN(c3nc(N4CCOCC4)c4ccccc4n3)CC2)cc1 | -16.5
57 | CCOC(=O)C1CCCN(C(=O)c2ccc(C(=O)c3ccccc3)cc2)C1 (stereo not drawn) | -2.45
58 | Cc1cc(N2CCCC2)nc2c(C)cccc12 | 4.82
59 | CC(C)(C)c1ccc(-c2nnc(N)o2)cc1 | 20.2
60 | COc1cc(C2OC(c3cc(OC)c(OC)c(OC)c3)C(C)C2C)cc(OC)c1OC (stereo not drawn) | 1.62
61 | N#Cc1c(N)oc(-c2ccco2)c1-c1ccco1 | 7.05
62 | CCCc1nn(C(=O)c2ccccc2)c2c1C(=O)CC(C)(C)C2 | 12.2
63 | O=C(CC1NC2CCCCC2NC1=O)Nc1ccc2c(c1)OCO2 (stereo not drawn) | 4.97
64 | O=C(O)CCN1C(=O)c2ccc(Oc3ccc4c(c3)C(=O)N(CCC(=O)O)C4=O)cc2C1=O | 4.91
65 | Cc1cc(=O)oc2c3c(cc(OCC(=O)N[C@@H](CC(C)C)C(=O)O)c12)OC(C)(C)CC3 | 10.5
66 | COc1ccc(C(=O)Nc2ccccc2N2CCCC2)cc1S(=O)(=O)N1CCOCC1 | 0.389
67 | CCn1ncc(/C=N/N=C2\CCC3C4CCc5cc(O)ccc5C4CCC23C)c1C (stereo not drawn) | 9.73
68 | COc1ccc(CC(=O)OCC(=O)NCc2ccco2)cc1 | 12.3
69 | COc1ccc(NC(=O)c2ccc(S(=O)(=O)N3CCOCC3)cc2)c(OC)c1 | 14.9

Row | Structure (SMILES) | hERG current change (%, negative = inhibition) at 1uM [%]
70 | COc1ccc(CCC(=O)N2CCCC(Nc3ccc(OC)cc3)C2)cc1 (stereo not drawn) | 5.24
71 | Cc1ccccc1NC(=O)NC1CCCCC1C (stereo not drawn) | 5.3
72 | COc1ccc(NC(=O)CS(=O)CC(=O)NC2CCCc3ccccc32)cc1 (stereo not drawn) | -1.8
73 | CN(CC(O)COC(c1ccccc1)c1ccccc1)C1CCCCC1 (stereo not drawn) | -38.1
74 | Cc1ccc(CN2CCN(Cc3cnc(C)[nH]3)CC2CCO)cc1 (stereo not drawn) | 5.97
75 | Oc1c(Br)cc(Br)cc1C=Nc1cccc2ncccc12 | 15.7
76 | COc1ccc(NC(=O)c2oc3ccccc3c2NC(=O)c2ccco2)c(OC)c1 | 4.57
77 | CCOc1ccc(C(=O)Nc2cc(C)c3c(=O)oc4ccccc4c3n2)cc1 | 10.1
78 | CCn1c(SCC(=O)N/N=C/c2cccs2)nc2ccccc21 | -5.66
79 | CCOC(=O)c1cccc(NC(=O)C2(S(=O)(=O)c3ccc(Cl)cc3)CC2)c1 | 6.06
80 | Cn1c(NCc2c[nH]c3ccccc23)nc2ccccc21 | -3.39
81 | c1ccc(-c2nc(NCCCn3ccnc3)c3ccccc3n2)cc1 | -30.2
82 | C=CCn1c(O)c(C(C)=Nc2ccc(N(C)C)cc2)c(=O)[nH]c1=O | 6.01
83 | CC1CCN(c2ccc(-c3ccc(NC(=O)c4ccco4)cc3)nn2)CC1 | 16.3
84 | O=[N+]([O-])c1cccc(S(=O)(=O)NCCc2cccs2)c1 | -6.32
85 | C/C(=N\OCC(=O)Nn1c(C)nc2ccccc2c1=O)c1cccs1 | 13.5
86 | COc1ccccc1OCC(=O)Nc1ccc(S(=O)(=O)N2CCN(C)CC2)cc1 | 7.01
87 | C[C@@H]1CC=C[C@H]2[C@H]1C(=O)N(Cc1ccccc1)[C@H]2c1cccc([N+](=O)[O-])c1 | 5.81
88 | COc1ccc(CC(=O)OCC(=O)NCc2ccco2)cc1OC | 17.9
89 | Cc1ccc(Sc2cnccc2C#N)cc1 | 11
90 | Cc1ccc2c(c1)C(C)CC(C)(C)N2C(=O)CN1CCN(C)CC1.O=C(O)C(=O)O (stereo not drawn) | -2.34
